Results on 1 substance are retold here after PMC12592532.

By UniProt entry, the sequences of proteins in these tests, tags left out.
UniProt Q8N122: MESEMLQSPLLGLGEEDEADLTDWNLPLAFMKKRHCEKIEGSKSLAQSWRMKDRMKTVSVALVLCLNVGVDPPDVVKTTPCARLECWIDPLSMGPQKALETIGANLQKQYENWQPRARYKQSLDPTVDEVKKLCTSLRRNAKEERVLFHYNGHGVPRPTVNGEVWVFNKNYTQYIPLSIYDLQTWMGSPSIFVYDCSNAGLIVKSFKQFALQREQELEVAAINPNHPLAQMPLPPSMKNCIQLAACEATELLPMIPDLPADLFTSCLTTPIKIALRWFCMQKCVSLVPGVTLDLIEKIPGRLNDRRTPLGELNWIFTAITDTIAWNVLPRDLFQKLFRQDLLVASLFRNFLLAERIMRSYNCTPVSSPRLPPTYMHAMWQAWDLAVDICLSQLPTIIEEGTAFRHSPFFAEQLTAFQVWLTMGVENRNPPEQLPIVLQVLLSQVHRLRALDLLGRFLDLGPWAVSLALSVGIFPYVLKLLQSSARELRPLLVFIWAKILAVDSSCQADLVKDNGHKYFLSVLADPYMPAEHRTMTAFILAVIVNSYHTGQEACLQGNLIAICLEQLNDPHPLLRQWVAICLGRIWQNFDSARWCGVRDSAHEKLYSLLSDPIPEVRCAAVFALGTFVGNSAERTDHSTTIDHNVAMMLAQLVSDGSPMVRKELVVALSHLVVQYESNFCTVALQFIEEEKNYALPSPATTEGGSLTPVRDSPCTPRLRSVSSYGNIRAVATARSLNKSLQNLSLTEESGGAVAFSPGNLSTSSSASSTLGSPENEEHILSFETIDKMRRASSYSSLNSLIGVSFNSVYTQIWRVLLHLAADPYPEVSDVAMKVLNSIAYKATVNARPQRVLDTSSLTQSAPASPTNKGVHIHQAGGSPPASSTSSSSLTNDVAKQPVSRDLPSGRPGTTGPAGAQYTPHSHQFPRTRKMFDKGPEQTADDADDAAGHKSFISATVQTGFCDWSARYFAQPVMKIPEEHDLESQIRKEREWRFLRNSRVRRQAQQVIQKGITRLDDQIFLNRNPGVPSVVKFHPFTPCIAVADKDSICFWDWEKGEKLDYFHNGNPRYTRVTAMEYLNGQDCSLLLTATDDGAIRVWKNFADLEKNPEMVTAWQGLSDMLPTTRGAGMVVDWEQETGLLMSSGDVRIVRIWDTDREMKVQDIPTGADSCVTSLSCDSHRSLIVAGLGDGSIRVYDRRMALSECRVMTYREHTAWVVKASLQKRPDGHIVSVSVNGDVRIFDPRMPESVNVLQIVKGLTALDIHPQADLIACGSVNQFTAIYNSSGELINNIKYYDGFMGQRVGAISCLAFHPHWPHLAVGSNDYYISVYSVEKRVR

The test deals with T1, PTPN22 (protein tyrosine phosphatase non-receptor type 22) (human (endogenous in Jurkat, HEK293T, HeLa)) (UniProt Q9Y2R2).
T1 sequence: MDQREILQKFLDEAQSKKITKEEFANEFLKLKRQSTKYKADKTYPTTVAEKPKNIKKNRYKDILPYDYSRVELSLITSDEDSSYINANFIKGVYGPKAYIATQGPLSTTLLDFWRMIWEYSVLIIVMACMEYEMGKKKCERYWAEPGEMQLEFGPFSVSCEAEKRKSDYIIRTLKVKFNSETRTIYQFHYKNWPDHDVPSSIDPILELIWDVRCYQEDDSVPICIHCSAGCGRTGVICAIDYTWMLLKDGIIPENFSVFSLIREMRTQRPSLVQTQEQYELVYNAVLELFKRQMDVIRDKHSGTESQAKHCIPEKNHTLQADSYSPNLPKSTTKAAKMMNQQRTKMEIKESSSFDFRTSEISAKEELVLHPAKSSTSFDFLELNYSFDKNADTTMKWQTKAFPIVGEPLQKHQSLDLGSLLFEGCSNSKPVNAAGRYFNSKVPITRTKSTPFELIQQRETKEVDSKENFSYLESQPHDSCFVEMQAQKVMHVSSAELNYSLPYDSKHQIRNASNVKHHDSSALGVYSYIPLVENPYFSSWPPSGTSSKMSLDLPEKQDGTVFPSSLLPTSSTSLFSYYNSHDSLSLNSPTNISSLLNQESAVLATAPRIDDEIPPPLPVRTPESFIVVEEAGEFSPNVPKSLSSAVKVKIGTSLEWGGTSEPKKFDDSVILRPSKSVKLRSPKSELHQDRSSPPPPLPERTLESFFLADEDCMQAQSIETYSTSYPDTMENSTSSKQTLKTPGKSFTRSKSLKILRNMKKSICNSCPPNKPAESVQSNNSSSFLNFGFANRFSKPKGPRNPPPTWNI
Nature of the test: co-IP; endogenous proteins; Jurkat cells lysed in 0.3% CHAPS buffer; IP with control IgG or anti-PTPN22 antibody, immunoblot (Fig. 1B, 3B).

These are yes or no findings as the source states them, for the method shown. In cells and extracts the contact can be indirect.

For “RAPTOR (Regulatory associated protein of mTOR) (from UniProt Q8N122 1-1335)”, the binding entry is recorded as “no binding”.
